# Results from ChEMBL document CHEMBL4888484, “Replenishing the malaria drug discovery pipeline: Screening and hit evaluation of the MMV Hit Generation Library 1 (HGL1) against asexual blood stage Plasmodium falciparum ,using a nano luciferase reporter read-out” (2022).
# Hit rate of the full screen: of about 150,000 compounds, about 540 (0.36%) showed an effect of 50% or more. This is one part of the list.
# System: Plasmodium falciparum
# Assay: Primary screen in NF54 nanoGlo assay, in single point, at 2uM, 72h; a lower Z score goes with more inhibition
# Assay type: functional, Erythrocyte
# Details: timepoint 72 hour
Structure (SMILES),% Inhibition [%],Z score
CC(C)CCNC(=O)N1C[C@@H]2CN(C(=O)c3ccncc3)C[C@]2(C(=O)N(C)C)C1,-4,0.47
CCOC(=O)c1cccc(NC(=O)c2ccc(-n3cnc(NC(=O)C(C)C)c3)cc2)c1,-8,0.92
O=C(NCc1cccnc1)c1ccc2c(c1)N(Cc1ccc(F)cc1)C(=O)CO2,-10,1.39
Cn1cc([C@@H]2CN(C(=O)COCc3ccnn3C)CCO2)cn1,-10,1.08
CCc1nncn1CCN[C@H]1CCc2cc(Cl)ccc21,-4,0.51
C1CCc2c(CNC3[C@@H]4CCO[C@@H]4C34CCC4)noc2C1 (stereo not given in full),-12,2.42
O=C(NCc1ccncc1)[C@@H]1CNCCN1C(=O)C1CCCCCC1,-8,1.59
COc1cccc([C@@]2(CC(=O)N3CCN(c4ccccn4)CC3)CC(=O)N(CCN(C)C)C2=O)c1,-2,0.33
COCCN(CC1CCN(Cc2ccccc2F)CC1)C[C@@H]1CC=CCC1,-2,0.25
Cc1cccc(NS(=O)(=O)c2cccc(C(=O)N3CCc4sccc4C3)c2)c1,3,-0.39
Cc1ccnc(-n2ccnc2-c2cccnc2)c1,-8,1.33
CC(C)(C)NC(=O)NCCCc1cnc2ncnn2c1,-6,1.18
C=CCOC[C@@H](O)CN(CCC)Cc1c(-c2ccccc2)noc1N1CCOCC1,-1,0.17
O=C(Cc1ccccc1Cl)N1CCc2cc(-c3ccncc3)ccc21,4,-0.69
COc1cccc([C@@H](O)C(=O)N(C)Cc2cn(C)nc2C(C)C)c1,-4,0.58
CC(C)Oc1ncccc1OCc1nnc2n1CCCCC2,-16,2.04
N[C@@H](c1ccccc1)c1ccc(-c2cccc(S(N)(=O)=O)c2)cc1,-10,1.65
CC[C@]1(C(N)=O)CCCN(c2nc(C)c(C)cc2C(N)=O)C1,-11,1.32
O=S(=O)(c1ccc(Cl)cc1)n1nc(Nc2ccccc2Cl)cc1Nc1ccccc1Cl,-11,1.59
OC[C@H](Cc1ccccc1)Nc1nc2ccccc2o1,0,0.05
CN(C)Cc1cn(C[C@H]2C[C@@H](NC(=O)NC3CCCC3)[C@H](O)[C@@H]2O)nn1,-4,0.68
CC(NC(CO)Cc1c[nH]c2ccccc12)c1ccsc1 (stereo not given),-4,0.54

Structure (SMILES),% Inhibition [%],Z score
O=S(=O)(CCC1CCCO1)N1CCCC1c1ccc[nH]1 (stereo not given),-11,1.42
Cc1cc(C)n2ncc(CN(Cc3nccn3C)C3CC3)c2n1,-12,2.12
Cc1nc(NC(=O)c2cc(N3CCOCC3)ncn2)sc1C(=O)N(C)C,-15,2.5
CN(C)C[C@H]1C[C@H](CO)CN(C(=O)c2ccc(Cl)cc2F)C1,-8,1.07
CC(C)Cc1nnc(NC(=O)N[C@@H](C)c2cnn(C)c2)s1,-15,2.82
COc1cccc(Cn2nnnc2C)n1,0,0.05
CN1CCCN(S(=O)(=O)c2ccc(Cl)cc2)c2ccccc21,-6,0.67
O=C1OC2(CCN([C@H]3CCCOC3)CC2)CN1CCOc1ccccc1,-1,0.09
Cc1ccccc1OCCNC(=O)N1CCC2(CCOCC2)C1,30,-3.36
COc1ccc(-c2cnc(C)o2)cc1S(=O)(=O)Nc1ccc(C(C)C)cc1,-8,1.41
CC(=O)Nc1nc(C(=O)NC2CCCCC2C)cs1 (stereo not given),1,-0.17
Cn1cccc1CNC1CCCCCC1,8,-0.9
Cc1ccc(CNC(=O)[C@]2(C)CCC(=O)N2CCCc2ccccc2)cc1,-16,1.5
CC1(C)CN(C(=O)c2csc(-c3cccs3)n2)CCO1,-2,0.34
COc1ccc(-n2ncc3c2NC(=O)C[C@]32C(=O)Nc3ccccc32)cc1,0,-0.07
O[C@H]1CCCN(CCCn2ccnc2-c2ccc3c(c2)CCO3)C1,-8,1
CC(C)c1nc([C@@H]2CCCCCN2Cc2nnn(C(C)(C)C)n2)no1,-3,0.63
CC1(C)CN(c2ccnc(C#N)n2)Cc2cn[nH]c21,-6,0.94
CC(C)Cc1noc(-c2cc3ccccc3c(=O)n2C)n1,-15,2.88
COc1ccc(C(C)C)cc1Cn1cc(CN2CCOC[C@H]2C)nn1,5,-0.83
Cn1cc(-c2c(C#N)c(N)nc3c2COc2ccccc2-3)cn1,-7,1.08
O=C(N[C@H]1CCOC[C@@H]1OCC1CCC1)c1ncn[nH]1,-2,0.26

Structure (SMILES),% Inhibition [%],Z score
CCc1ccc(NC(=O)c2sc3nc(C)c(C(=O)Nc4ccc(C)cc4C)c(-c4ccccc4Cl)c3c2N)cc1,40,-2.96
Cc1cnc(C2CCOCC2)n1CC1CN(C(=O)Nc2ccc3c(c2)OCCO3)C1,-8,1.1
CCc1noc(NC(C)=O)c1-c1ccc(OC)c(S(=O)(=O)Nc2ccc(Cl)cc2)c1,-8,1.17
Cc1ccccc1-n1ncc2c1CC(C)(C)C[C@@H]2NC(=O)CCn1cncn1,-12,1.24
CCn1nccc1C(=O)N1CCc2c(c(COc3cnccn3)nn2C)C1,2,-0.26
CC(=O)N1C(c2cnc(C)c(-c3ccccc3)c2)CC=C(C)C1c1ccccc1 (stereo not given),3,-0.37
COc1cccc(CN2CCN3C(=O)N(Cc4ccc(F)cc4)C[C@H]3C2)n1,12,-1.86
CCC[C@H](C)c1cc(NS(=O)(=O)Cc2ccccc2)[nH]n1,-1,0.14
Cc1cc(CN(C)C(=O)NCC2CCCCCCC2)no1,-4,0.66
Cc1nn(Cc2ccc(Cl)cc2)c(C)c1C(=O)N1CCCNCC1,-15,2.63
CC1OC2c3cccc4cccc(c34)C2N1c1ccccc1 (stereo not given),-10,1.13
O=C(COc1ccc2ccccc2c1)NC1CCN(C[C@H]2CCCO2)CC1,-13,1.7
O=C(N[C@H](C(=O)O)c1ccccc1)c1cc(Cl)ccc1F,-15,1.54
O=C(NC[C@H](CC1CC1)C(=O)O)C1CC2(CC2)C1,-12,2.05
NC(=O)c1cncc(NCc2cccnc2N2CCN(c3ccccn3)CC2)n1,2,-0.41
Cc1c(C(=O)N2CC[C@H](C)c3cccc(O)c32)nnn1Cc1ccc(F)cc1F,-15,2.61
Cn1c(CCc2cccc(NC(=O)Nc3ccccc3Cl)c2)nc2ccccc21,-9,1.4
CCC(=O)N1CCN(c2cc(-n3ccc(C)n3)ncn2)CC1,-20,1.74
COc1ccccc1OCC(=O)N[C@@H]1CNC(=O)C1,-6,1.2
Cc1ccc([C@H](C)N(C)C(=O)CCOC2CCOCC2)s1,-7,1.2
CCn1cc(Cl)c(C(=O)N(CCO)Cc2nccs2)n1,1,-0.15
O=C(c1cc(-c2ccc(F)cc2)n[nH]1)N1CCC(n2ccnn2)CC1,-3,0.6

Structure (SMILES),% Inhibition [%],Z score
CCN(CC(=O)Nc1c(C)cccc1C)C(=O)C1CC2CCC1O2 (stereo not given),-8,0.85
O=C(c1cccc(F)c1)N1CC(=O)N2CCc3ccccc3[C@@H]2C1,5,-0.68
O=S(=O)(c1cccc(NCc2ccccc2C(F)(F)F)c1)N1CCOCC1,-1,0.22
CN(CCc1cnn(C)c1)Cc1cccc(Cl)c1,0,-0.01
C[C@H](NCc1cnc(C(C)(C)C)s1)c1cn[nH]c1,17,-2.19
Cc1ccc(S(=O)(=O)N2c3ccccc3[C@](C)(c3ccccc3)CC2(C)C)cc1,-16,2.09
CCc1ccc([C@@H](C)C(=O)NCc2csc(=O)[nH]2)cc1,30,-3.42
O=C(c1ccc(-c2nc(-c3ccc(F)cc3)no2)cc1)N1CCN(Cc2ccc3c(c2)OCO3)CC1,0,-0.02
Cn1cc(Br)c(C(=O)NCC2(C3(O)CCC3)CC2)n1,-13,2.07
O=C1CC[C@H](Nc2cnc3cc(Cl)c(Cl)cc3n2)CN1,5,-0.94
Cc1ccc(C(=O)NCC2CC3C=CC2CC3)nn1 (stereo not given),-2,0.47
CCC1(CC)NC(=O)N(CC(=O)Nc2cccc(-c3csc(C)n3)c2)C1=O,-12,1.59
CN(Cc1nccs1)c1ccc(F)cn1,-3,0.39
Fc1ccc([C@H](c2nnc(-c3ccccc3)o2)N2CCN(C3CCCCC3)CC2)cc1,0,-0.01
CCN(CCN(C)C)c1ccc(NC(=O)c2cccs2)cc1C(=O)O,-24,2.17
CC(C)CNC(=O)c1cc(=O)c(OCc2cccc(Cl)c2)cn1CCO,-2,0.3
C=C[C@](C)(CC)C(=O)N1CC(CC(N)=O)C1,-11,1.21
CC(C)(C)N1C[C@@H](c2nc(-c3ccc4c(c3)CCC4)no2)CC1=O,-13,1.73
CC(C)CNC(=O)COc1ccccc1Br,-5,0.73
